# Reference: the supplement of paper PMC8728848
# Some of the results follow.
# Key:
# Assay in all cases: glycan array binding signal (z-score within array); higher = stronger binding
# Settings in all cases: glycan notation: IUPAC condensed, linker removed; mutation: R343I
# [1] = target: Neu5Ac(a2-3)Gal(b1-3)[Fuc(a1-4)]GlcNAc
# Method in brief: (§1)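 From the Consortium for Functional Glycomics database, 3228 arrays were curated, keeping only those whose protein sequence was available. Binding is given as a within-array Z-score averaged across arrays sharing a protein sequence and across linkers. Negative Z-scores can be read as non-binding.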
# [2] = target: Neu5Ac(a2-3)Gal(b1-3)[Fuc(a1-4)]GlcNAc(b1-3)Gal(b1-4)[Fuc(a1-3)]GlcNAc
# Method in brief: as §1
# [3] = target: Neu5Ac(a2-3)Gal(b1-3)[Neu5Ac(a2-3)Gal(b1-4)]GlcNAc
# Method in brief: as §1
# [4] = target: Neu5Ac(a2-3)Gal(b1-3)[Neu5Ac(a2-6)]GalNAc
# Method in brief: as §1
# [5] = target: Neu5Ac(a2-3)Gal(b1-4)Glc
# Method in brief: as §1
# [6] = target: Neu5Ac(a2-3)Gal(b1-4)GlcNAc
# Method in brief: as §1
# [7] = target: Neu5Ac(a2-3)Gal(b1-4)GlcNAc(b1-2)Man(a1-3)[GlcNAc(b1-2)Man(b1-4)GlcNAc(b1-2)Man(a1-6)]Man(b1-4)GlcNAc(b1-4)GlcNAc
# Method in brief: as §1
# [8] = target: Neu5Ac(a2-3)Gal(b1-4)GlcNAc(b1-2)Man(a1-3)[Neu5Ac(a2-6)Gal(b1-4)GlcNAc(b1-2)Man(a1-6)]Man(b1-4)GlcNAc(b1-4)GlcNAc
# Method in brief: as §1
# [9] = target: Neu5Ac(a2-3)Gal(b1-4)GlcNAc(b1-3)Gal(b1-3)GlcNAc
# Method in brief: as §1
# [10] = target: Neu5Ac(a2-3)Gal(b1-4)GlcNAc(b1-3)Gal(b1-4)GlcNAc
# Method in brief: as §1
# [11] = target: Neu5Ac(a2-3)Gal(b1-4)GlcNAc(b1-3)Gal(b1-4)GlcNAc(b1-3)Gal(b1-4)GlcNAc
# Method in brief: as §1
# [12] = target: Neu5Ac(a2-3)Gal(b1-4)GlcNAc(b1-3)Gal(b1-4)[Fuc(a1-3)]GlcNAc
# Method in brief: as §1
# [13] = target: Neu5Ac(a2-3)Gal(b1-4)GlcNAc(b1-6)[Gal(b1-3)]GalNAc
# Method in brief: as §1
# [14] = target: Neu5Ac(a2-3)Gal(b1-4)GlcNAc(b1-6)[Neu5Ac(a2-3)Gal(b1-3)]GalNAc
# Method in brief: as §1
# [15] = target: Neu5Ac(a2-3)Gal(b1-4)GlcNAc6S
# Method in brief: as §1
# [16] = target: Neu5Ac(a2-3)Gal(b1-4)[Fuc(a1-3)]GlcNAc
# Method in brief: as §1
# [17] = target: Neu5Ac(a2-3)Gal(b1-4)[Fuc(a1-3)]GlcNAc(b1-3)Gal
# Method in brief: as §1
# [18] = target: Neu5Ac(a2-3)Gal(b1-4)[Fuc(a1-3)]GlcNAc(b1-3)Gal(b1-4)GlcNAc
# Method in brief: as §1
# [19] = target: Neu5Ac(a2-3)Gal(b1-4)[Fuc(a1-3)]GlcNAc(b1-3)Gal(b1-4)[Fuc(a1-3)]GlcNAc(b1-3)Gal(b1-4)[Fuc(a1-3)]GlcNAc
# Method in brief: as §1
# [20] = target: Neu5Ac(a2-3)Gal(b1-4)[Fuc(a1-3)]GlcNAc(b1-6)[Gal(b1-3)]GalNAc
# Method in brief: as §1
# [21] = target: Neu5Ac(a2-3)Gal(b1-4)[Fuc(a1-3)]GlcNAc6S
# Method in brief: as §1
# [22] = target: Neu5Ac(a2-3)Gal6S(b1-4)GlcNAc
# Method in brief: as §1
# [23] = target: Neu5Ac(a2-3)Gal6S(b1-4)[Fuc(a1-3)]GlcNAc
# Method in brief: as §1
# [24] = target: Neu5Ac(a2-3)GalNAc
# Method in brief: as §1
# [25] = target: Neu5Ac(a2-3)GalNAc(b1-4)GlcNAc
# Method in brief: as §1
# [26] = target: Neu5Ac(a2-3)[GalNAc(b1-4)]Gal(b1-4)Glc
# Method in brief: as §1
# [27] = target: Neu5Ac(a2-3)[GalNAc(b1-4)]Gal(b1-4)GlcNAc
# Method in brief: as §1
# [28] = target: Neu5Ac(a2-3)[Neu5Ac(a2-6)]GalNAc
# Method in brief: as §1
# [29] = target: Neu5Ac(a2-6)Gal
# Method in brief: as §1
# [30] = target: Neu5Ac(a2-6)Gal(b1-4)Glc
# Method in brief: as §1
# [31] = target: Neu5Ac(a2-6)Gal(b1-4)GlcNAc
# Method in brief: as §1
# [32] = target: Neu5Ac(a2-6)Gal(b1-4)GlcNAc(b1-2)Man(a1-3)[Gal(b1-4)GlcNAc(b1-2)Man(a1-6)]Man(b1-4)GlcNAc(b1-4)GlcNAc
# Method in brief: as §1
# [33] = target: Neu5Ac(a2-6)Gal(b1-4)GlcNAc(b1-2)Man(a1-3)[GlcNAc(b1-2)Man(a1-6)]Man(b1-4)GlcNAc(b1-4)GlcNAc
# Method in brief: as §1
# [34] = target: Neu5Ac(a2-6)Gal(b1-4)GlcNAc(b1-2)Man(a1-3)[GlcNAc(b1-2)Man(b1-4)GlcNAc(b1-2)Man(a1-6)]Man(b1-4)GlcNAc(b1-4)GlcNAc
# Method in brief: as §1
# [35] = target: Neu5Ac(a2-6)Gal(b1-4)GlcNAc(b1-2)Man(a1-3)[Neu5Ac(a2-6)Gal(b1-4)GlcNAc(b1-2)Man(a1-6)]Man(b1-4)GlcNAc(b1-4)GlcNAc
# Method in brief: as §1
# [36] = target: Neu5Ac(a2-6)Gal(b1-4)GlcNAc(b1-2)Man(a1-6)[Gal(b1-4)GlcNAc(b1-2)Man(a1-3)]Man(b1-4)GlcNAc(b1-4)GlcNAc
# Method in brief: as §1
# [37] = target: Neu5Ac(a2-6)Gal(b1-4)GlcNAc(b1-2)Man(a1-6)[GlcNAc(b1-2)Man(a1-3)]Man(b1-4)GlcNAc(b1-4)GlcNAc
# Method in brief: as §1
# [38] = target: Neu5Ac(a2-6)Gal(b1-4)GlcNAc(b1-3)Gal(b1-4)GlcNAc
# Method in brief: as §1
# [39] = target: Neu5Ac(a2-6)Gal(b1-4)GlcNAc(b1-3)Gal(b1-4)[Fuc(a1-3)]GlcNAc(b1-3)Gal(b1-4)[Fuc(a1-3)]GlcNAc
# Method in brief: as §1
# [40] = target: Neu5Ac(a2-6)Gal(b1-4)GlcNAc6S
# Method in brief: as §1
# [41] = target: Neu5Ac(a2-6)GalNAc
# Method in brief: as §1
# [42] = target: Neu5Ac(a2-6)GalNAc(b1-4)GlcNAc
# Method in brief: as §1
# [43] = target: Neu5Ac(a2-8)Neu5Ac
# Method in brief: as §1
# [44] = target: Neu5Ac(a2-8)Neu5Ac(a2-3)Gal(b1-4)Glc
# Method in brief: as §1
# [45] = target: Neu5Ac(a2-8)Neu5Ac(a2-3)[GalNAc(b1-4)]Gal(b1-4)Glc
# Method in brief: as §1
# [46] = target: Neu5Ac(a2-8)Neu5Ac(a2-8)Neu5Ac
# Method in brief: as §1
# [47] = target: Neu5Ac(a2-8)Neu5Ac(a2-8)Neu5Ac(a2-3)Gal(b1-4)Glc
# Method in brief: as §1
# [48] = target: Neu5Ac(a2-8)Neu5Ac(a2-8)Neu5Ac(a2-3)[GalNAc(b1-4)]Gal(b1-4)Glc
# Method in brief: as §1
# [49] = target: Neu5Ac(a2-8)Neu5Ac(a2-8)Neu5Ac(a2-8)Neu5Ac(a2-3)[GalNAc(b1-4)]Gal(b1-4)Glc
# Method in brief: as §1
# [50] = target: Neu5Ac(b2-6)Gal(b1-4)GlcNAc
# Method in brief: as §1
# [51] = target: Neu5Ac(b2-6)GalNAc
# Method in brief: as §1
# [52] = target: Neu5Ac9Ac(a2-6)Gal(b1-4)GlcNAc
# Method in brief: as §1
# [53] = target: Neu5Gc(a2-3)Gal(b1-3)GlcNAc
# Method in brief: as §1
# [54] = target: Neu5Gc(a2-3)Gal(b1-3)[Fuc(a1-4)]GlcNAc
# Method in brief: as §1
# [55] = target: Neu5Gc(a2-3)Gal(b1-4)Glc
# Method in brief: as §1
# [56] = target: Neu5Gc(a2-3)Gal(b1-4)GlcNAc
# Method in brief: as §1
# [57] = target: Neu5Gc(a2-3)Gal(b1-4)[Fuc(a1-3)]GlcNAc
# Method in brief: as §1
# [58] = target: Neu5Gc(a2-6)Gal(b1-4)GlcNAc
# Method in brief: as §1
# [59] = target: Neu5Gc(a2-6)GalNAc
# Method in brief: as §1
# [60] = target: Neu5Gc(b2-6)Gal(b1-4)GlcNAc
# Method in brief: as §1
binder,measurement,setting,value
Surfactant Protein D (Human); Neck + Carbohydrate Recognition Domain (NCRD) (Homo sapiens) (protein) MLLFLLSALVLLTQPLGYLEAEMKTYSHRTMPSACTLVMCSSVESGLPGRDRDGREGPRGEKGDPGLPGAAGQAGMPGQAGPVGPKGDNGSVGEPGPKGDTGPSGPPGPPGVPGPAGREGALGKQGNIGPQGKPGPKGEAGPKGEVGAPGMQGSAGARGLAGPKGERGVPGERGVPGNTGAAGSAGAMGPQGSPGARGPPGLKGDKGIPGDKGAKGESGLPDVASLRQQVEALQGQVQHLQAAFSQYKKVELFPNGQSVGEKIFKTAQFVKPFTEAQLLCTQAGGQLASPRSAAENAALQQLVVAKNEAAFLSMTDSKTEGKFTYPTGESLVYSNWAPGEPNDDGGSEDCVEIFTNGKWNDIACGEKRLVVCEF,glycan array binding signal (z-score),[1],-0.268
same,glycan array binding signal (z-score),[2],-0.227
same,glycan array binding signal (z-score),[3],-0.272
same,glycan array binding signal (z-score),[4],-0.269
same,glycan array binding signal (z-score),[5],-0.277
same,glycan array binding signal (z-score),[6],-0.259
same,glycan array binding signal (z-score),[7],-0.151
same,glycan array binding signal (z-score),[8],-0.272
same,glycan array binding signal (z-score),[9],-0.278
same,glycan array binding signal (z-score),[10],-0.278
same,glycan array binding signal (z-score),[11],-0.272
same,glycan array binding signal (z-score),[12],-0.264
same,glycan array binding signal (z-score),[13],-0.278
same,glycan array binding signal (z-score),[14],-0.275
same,glycan array binding signal (z-score),[15],-0.266
same,glycan array binding signal (z-score),[16],-0.271
same,glycan array binding signal (z-score),[17],-0.275
same,glycan array binding signal (z-score),[18],-0.265
same,glycan array binding signal (z-score),[19],-0.255
same,glycan array binding signal (z-score),[20],-0.254
same,glycan array binding signal (z-score),[21],-0.272
same,glycan array binding signal (z-score),[22],-0.276
same,glycan array binding signal (z-score),[23],-0.27
same,glycan array binding signal (z-score),[24],-0.278
same,glycan array binding signal (z-score),[25],-0.276
same,glycan array binding signal (z-score),[26],-0.276
same,glycan array binding signal (z-score),[27],-0.265
same,glycan array binding signal (z-score),[28],-0.275
same,glycan array binding signal (z-score),[29],-0.27
same,glycan array binding signal (z-score),[30],-0.274
same,glycan array binding signal (z-score),[31],-0.275
same,glycan array binding signal (z-score),[32],-0.269
same,glycan array binding signal (z-score),[33],-0.257
same,glycan array binding signal (z-score),[34],-0.274
same,glycan array binding signal (z-score),[35],-0.268
same,glycan array binding signal (z-score),[36],-0.272
same,glycan array binding signal (z-score),[37],1.83
same,glycan array binding signal (z-score),[38],-0.275
same,glycan array binding signal (z-score),[39],-0.203
same,glycan array binding signal (z-score),[40],-0.275
same,glycan array binding signal (z-score),[41],-0.269
same,glycan array binding signal (z-score),[42],-0.278
same,glycan array binding signal (z-score),[43],-0.269
same,glycan array binding signal (z-score),[44],-0.267
same,glycan array binding signal (z-score),[45],-0.27
same,glycan array binding signal (z-score),[46],-0.27
same,glycan array binding signal (z-score),[47],-0.276
same,glycan array binding signal (z-score),[48],-0.271
same,glycan array binding signal (z-score),[49],-0.253
same,glycan array binding signal (z-score),[50],-0.268
same,glycan array binding signal (z-score),[51],-0.275
same,glycan array binding signal (z-score),[52],-0.269
same,glycan array binding signal (z-score),[53],-0.272
same,glycan array binding signal (z-score),[54],-0.278
same,glycan array binding signal (z-score),[55],-0.275
same,glycan array binding signal (z-score),[56],-0.267
same,glycan array binding signal (z-score),[57],-0.277
same,glycan array binding signal (z-score),[58],-0.276
same,glycan array binding signal (z-score),[59],-0.264
same,glycan array binding signal (z-score),[60],-0.26
